According to article PMC10933337, “RhoGDI phosphorylation by PKC promotes its interaction with death receptor p75^NTR to gate axon growth and neuron survival” (EMBO Reports, 2024):
Residue numbers refer to the chain shown, from its start. These are yes or no findings as the source states them, for the method shown. In cells and extracts the contact can be indirect. Some results given as binding are weak or reduced against the parent protein; the word gives no strength. Where a sequence is shown, tags or fusion partners need not be part of it.

Sequences of proteins named here, by UniProt entry; tags and fusion partners are left off.
UniProt P61586: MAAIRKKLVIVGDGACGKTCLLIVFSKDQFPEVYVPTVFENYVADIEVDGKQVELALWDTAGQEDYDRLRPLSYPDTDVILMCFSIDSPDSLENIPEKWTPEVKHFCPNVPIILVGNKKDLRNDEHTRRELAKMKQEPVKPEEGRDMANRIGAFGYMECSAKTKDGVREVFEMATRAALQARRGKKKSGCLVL

Legend:
[1] = molecular target: T1, mouse Flag-RhoGDI S34D (mouse) (UniProt Q99PT1); assay: co-IP; as a5, with p75NTR co-expressed in the NIH3T3 cells; Flag-RhoGDI immunoprecipitates probed for bound HA-RhoA
T1 sequence: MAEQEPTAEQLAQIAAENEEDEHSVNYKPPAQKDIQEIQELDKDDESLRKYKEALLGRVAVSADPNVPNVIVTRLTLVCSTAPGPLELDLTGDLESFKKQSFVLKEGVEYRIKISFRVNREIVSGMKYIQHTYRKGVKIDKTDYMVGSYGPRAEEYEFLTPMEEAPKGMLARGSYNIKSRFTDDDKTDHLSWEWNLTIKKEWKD

[2] = molecular target: T2, mouse Flag-RhoGDI S34D/S96A double mutant (mouse) (UniProt Q99PT1); assay: as above
T2 sequence: T1 sequence with S96A

[3] = molecular target: T3, mouse Flag-RhoGDI wild type, transfected in NIH3T3 cells (mouse) (UniProt Q99PT1); assay: as above
T3 sequence: T1 sequence with D34S

[4] = molecular target: T4, mouse Flag-RhoGDI S34A (mouse) (UniProt Q99PT1); assay: co-IP; Flag-RhoGDI constructs and RhoA in NIH3T3 cells, which lack endogenous p75NTR; RhoGDI immunoprecipitates probed for bound RhoA
T4 sequence: T1 sequence with D34A

[5] = molecular target: T1, mouse Flag-RhoGDI S34D (mouse); assay: as above
[6] = molecular target: T5, mouse Flag-RhoGDI S96A (mouse) (UniProt Q99PT1); assay: as above
T5 sequence: T1 sequence with D34S, S96A

[7] = molecular target: T3, mouse Flag-RhoGDI wild type, transfected in NIH3T3 cells (mouse); assay: as above

HA-RhoA (from UniProt P61586 1-193)
binding [1]: no binding (condition: with p75NTR co-expressed)
binding [2]: binds
binding [3]: binds
binding [4]: binds
binding [5]: binds
binding [6]: binds
binding [7]: binds
